# Laboratory results taken from PubChem BioAssay AID720708 (National Center for Advancing Translational Sciences (NCATS), 2013).
# Screen size: about 360,000 compounds; about 660 (0.18%) were called active. This list was built around the results that the source calls inconclusive (neither active nor inactive); the mix of calls is not that of the screen. Calls come from the whole dose curve; as a rule, active = well fitted inhibition curve with a large enough effect; inconclusive = small, poorly fitted or top-dose-only effect; inactive = no such curve, though single readings can be large or run the other way. No potency is given beside an inconclusive call; the fits are too rough.
# Biological target: Rap guanine nucleotide exchange factor 4 (Homo sapiens) (UniProt Q8WZA2)
# Assay: qHTS for Antagonist of cAMP-regulated guanine nucleotide exchange factor 2 (EPAC2): primary screen; note: nearly all actives have a fitted effect of over 45% in size
# Conditions: EPAC2 GEF exchange of Rap1B-BODIPY-GDP, fluorescence; activity, negative = inhibition: at 114 µM (top of the series) unless noted
# % is set by controls: 0 for no effect and ±100 for the full control effect; potency is the fitted concentration of half-maximal effect; tags give direction and shape of the fitted curve.
# Sequence of UniProt Q8WZA2 (Q8WZA2 whole entry, looked up): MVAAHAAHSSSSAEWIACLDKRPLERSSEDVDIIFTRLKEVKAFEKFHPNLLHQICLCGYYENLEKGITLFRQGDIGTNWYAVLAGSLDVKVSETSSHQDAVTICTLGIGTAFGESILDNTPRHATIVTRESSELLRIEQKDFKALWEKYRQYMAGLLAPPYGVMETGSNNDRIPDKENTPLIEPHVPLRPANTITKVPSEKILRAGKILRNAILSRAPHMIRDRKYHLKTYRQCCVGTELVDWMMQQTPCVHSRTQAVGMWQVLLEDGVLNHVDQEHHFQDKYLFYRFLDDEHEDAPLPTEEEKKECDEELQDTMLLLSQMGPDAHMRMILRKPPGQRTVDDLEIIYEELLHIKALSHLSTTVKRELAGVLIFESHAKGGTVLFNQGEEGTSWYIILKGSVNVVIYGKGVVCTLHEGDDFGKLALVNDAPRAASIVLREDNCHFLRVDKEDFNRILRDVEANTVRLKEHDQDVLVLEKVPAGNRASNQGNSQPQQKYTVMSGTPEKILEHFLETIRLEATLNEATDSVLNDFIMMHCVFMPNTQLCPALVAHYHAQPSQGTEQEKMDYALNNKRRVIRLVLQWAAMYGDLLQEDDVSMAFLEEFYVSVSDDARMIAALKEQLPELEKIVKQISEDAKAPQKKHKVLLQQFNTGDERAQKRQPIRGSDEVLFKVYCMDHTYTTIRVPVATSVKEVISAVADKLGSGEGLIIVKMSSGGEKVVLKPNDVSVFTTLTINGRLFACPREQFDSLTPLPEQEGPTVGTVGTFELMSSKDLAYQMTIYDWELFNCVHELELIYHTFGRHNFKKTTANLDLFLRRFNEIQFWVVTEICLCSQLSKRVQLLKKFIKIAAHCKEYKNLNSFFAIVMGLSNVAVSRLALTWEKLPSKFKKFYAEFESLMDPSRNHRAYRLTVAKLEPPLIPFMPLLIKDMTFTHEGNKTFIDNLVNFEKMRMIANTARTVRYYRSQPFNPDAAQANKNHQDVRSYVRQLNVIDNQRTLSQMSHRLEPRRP
Compound,Potency,"activity, negative = inhibition"
O=c1[nH]c(/C=C/c2ccc([N+](=O)[O-])cc2)c([N+](=O)[O-])c(=O)[nH]1,"inconclusive [inhibitor, partial curve]",
CCc1ccc(N=Nc2ccc(O)c3[nH]cnc23)cc1,"inconclusive [inhibitor, single point]",
COc1cccc(OC)c1OC(=O)c1ccccc1,"inconclusive [inhibitor, single point]",
COc1ccc(-c2ccc(OC)c([C@H]3[C@H]4C=CC[C@@H](C)[C@@H]4C(=O)N3Cc3ccccc3)c2)cc1OC,"inconclusive [inhibitor, partial curve, poor fit]",
O=C(NC1CCCCC1)c1ccc(S(=O)(=O)c2ccccc2)cc1,"inconclusive [inhibitor, partial curve, poor fit]",
CCCSc1oc(-c2ccco2)nc1S(=O)(=O)c1ccc(C)cc1,"inconclusive [inhibitor, partial curve, poor fit]",
Cc1ccc(N(Cc2ccc([N+](=O)[O-])cc2)C(=O)c2ccco2)cc1,"inconclusive [inhibitor, partial curve]",
CCOc1ccc(NC(=O)COc2ccc(C(=O)NCc3cccnc3)cc2OC)cc1,,inactive: -9.35%
Cc1ccc(S(=O)(=O)Oc2ccccc2-c2ccccc2)cc1,"inconclusive [inhibitor, single point]",
C=CCN(CC=C)S(=O)(=O)c1ccc(NC(=S)NC(=O)C2CC2)cc1,"inconclusive [inhibitor, partial curve]",
O=C1N(Cc2ccccc2)c2ccccc2OC1(F)F,"inconclusive [inhibitor, single point]",
COc1nccc(C(F)(F)F)c1C(=O)Nc1ccc(Cl)cc1,"inconclusive [inhibitor, partial curve]",
CCOC(=O)c1cnc(Nc2nc3ccccc3o2)nc1CSc1nnc(C)s1,,inactive: -0.356%
O=C(c1cc(-c2ccc(O)cc2)on1)N1CCCCCC1,,inactive: -5.66%
CCOC(=O)c1c(C)oc2cc(Br)c(O)c(Br)c12,"inconclusive [inhibitor, partial curve]",
Cn1c(=O)[nH]c(=O)c2c1nc(SCC(O)CCl)n2Cc1ccccc1 (configuration not stated),"inconclusive [inhibitor, single point]",
COc1ccc(-c2nc3ccccn3c2NC2CCCCC2)cc1SC1CCCCC1,"inconclusive [inhibitor, single point]",
CCOc1ccc(C(N)=O)cc1OC,,inactive: 6.83%
Cc1ccc(/C=c2/sc3nnc(-c4ccccc4Cl)n3c2=O)o1,,inactive: -17.7%
CC1(C(=O)NS(=O)(=O)c2ccc(C#N)cc2)CCN1C(=O)C1(c2ccccc2)CCCC1 (configuration not stated),"inconclusive [inhibitor, partial curve]",
CCOc1ccc2c(c1)C(NC(C)=O)C(=O)N2CCN1CCOCC1 (configuration not stated),,inactive: -18.2%
CC1CCN(CCCNC(=O)c2cc3sccc3n2C)CC1,,inactive: 3.29%
CSc1ccc(CN2C(=O)C(C)ON=C2c2ccccc2F)cc1 (configuration not stated),"inconclusive [inhibitor, partial curve]",

Compound,Potency,"activity, negative = inhibition"
N#Cc1ccc(S(=O)(=O)N2CCCN(c3ccc(C(F)(F)F)cn3)CC2)cc1,"inconclusive [inhibitor, full curve]",
CCC(=O)NC(c1cc(Cl)c2ccccc2c1O)C1CC1 (configuration not stated),"inconclusive [inhibitor, full curve]",
COC(=O)CN(c1cc(Cl)ccc1OC)S(=O)(=O)c1ccc(C)cc1,"inconclusive [inhibitor, partial curve, poor fit]",
CCCCN1C(=O)C(O)(c2ccccc2)c2cc(Br)ccc21 (configuration not stated),"inconclusive [inhibitor, partial curve, poor fit]",
COc1cccc(-c2sc3ccc(OC)cc3c2C#CC2(O)CCCCC2)c1,"inconclusive [inhibitor, single point]",
COc1ccc(C(=O)C(=O)N2CCC(c3ccccc3)CC2)cn1,,inactive: -9.1%
Clc1ccc(-c2nnc(-c3ccc4ccccc4c3)o2)cc1,,inactive: 5.33%
CC(NC(=O)COc1ccccc1Cl)c1ccccc1 (configuration not stated),"inconclusive [inhibitor, single point]",
O=C(Nc1ccccc1)N1CCSc2ccccc21,"inconclusive [inhibitor, single point]",
O=C(COC(=O)c1ccccc1C(=O)c1ccc(Cl)cc1)NCc1ccccc1,"inconclusive [inhibitor, partial curve]",
Cc1ccc(COc2ccccc2C(=S)N2CCCC2)cc1,"inconclusive [inhibitor, partial curve]",
Brc1ccc(N/N=C(/N=Nc2nn[nH]n2)c2ccccc2)cc1,"inconclusive [inhibitor, partial curve, poor fit]",
CCN(CC(=O)Nc1cc(Cl)ccc1OC)CC(=O)NC1CCS(=O)(=O)C1 (configuration not stated),,inactive: 4.4%
CSc1nc(-c2ccccc2)c2cc(Cl)ccc2n1,"inconclusive [inhibitor, full curve, poor fit]",
Cc1cccc(CS(=O)(=O)c2ncc(Cl)c(C(=O)Nc3nnc(C(C)C)s3)n2)c1,,inactive: 0.366%
Cc1cccc(C)c1OCCOC(=O)c1n[nH]c2ccccc12,"inconclusive [inhibitor, partial curve]",
O=c1nc(SCc2cccc(C(F)(F)F)c2)nc2ccccn12,"inconclusive [inhibitor, partial curve]",
N#Cc1ccc(C(=O)Nc2nc3ccccc3[nH]2)cc1,"inconclusive [inhibitor, single point]",
Cc1ccc(S(=O)(=O)n2cc(C=O)c3ccccc32)cc1,"inconclusive [inhibitor, partial curve]",
COc1cccc(/C=C2\SC(=S)N(NS(=O)(=O)c3ccccc3)C2=O)c1OC,"inconclusive [inhibitor, partial curve]",
O=C(NC1CCC(O)CC1)c1ccc(S(=O)(=O)NCc2ccco2)cc1 (configuration not stated),"inconclusive [inhibitor, single point]",
C#CCOCCOCCOCCNc1nc(N2CCN(C(=O)CCCCCCCCCCNC(=O)[C@@H](CCSC)n3cc(CCO)nn3)CC2)nc(N2CCN(C(=O)CCCCCCCCCCNC(=O)[C@H](CCCN=C(N)N)n3cc(C[C@@H](C)CC)nn3)CC2)n1,"inconclusive [inhibitor, single point]",
O=C(CCCCl)NC(=S)Nc1cc(C(F)(F)F)ccc1N1CCOCC1,"inconclusive [inhibitor, full curve]",

Compound,Potency,"activity, negative = inhibition"
Cc1ccc(N=Cc2c(O)c3ccccc3n(C)c2=O)cc1,"inconclusive [inhibitor, full curve, poor fit]",
Cc1ccc2c(c1)C(=O)CC(c1ccccc1)S2 (configuration not stated),"inconclusive [inhibitor, partial curve]",
CCCCn1cnc2c(SCCc3ccccc3)nc(N)nc21,,inactive: -8.28%
CC(C)OC(=O)CSc1nc(Cc2ccccc2)nc2ccccc12,"inconclusive [inhibitor, partial curve]",
CC(=O)c1cn(S(=O)(=O)c2ccccc2)c2ccccc12,"inconclusive [inhibitor, partial curve]",
CCc1nnc(NS(=O)(=O)c2ccc(NC(=S)NC(=O)c3ccncc3)cc2)s1,,inconclusive: -13.7% [inhibitor]
CCCCN(CCCC)c1nc(-c2ccncc2)nc2ccccc12,"inconclusive [inhibitor, partial curve]",
Nc1nc2c(s1)CCc1c-2cnn1-c1ccccc1,"inconclusive [inhibitor, single point]",
COC(=O)c1ccc2nc(-c3ccc(OC)c(OC)c3)c(Cc3cccc(F)c3)n2c1,"inconclusive [inhibitor, full curve]",
CC(=O)NN1C(=O)c2ccc3c4c(ccc(c24)C1=O)C(=O)N(NC(C)=O)C3=O,,inactive: -6.61%
COc1ccc(C)cc1NC(=O)C(C)N1CCOCC1 (configuration not stated),,inactive: 5.8%
CSc1ccccc1C(=O)N(C)C(c1ccccc1)c1ccccc1,"inconclusive [inhibitor, full curve]",
CC(C)(C)C(=O)NC(c1ccccc1)c1c(O)ccc2ccccc12 (configuration not stated),"inconclusive [inhibitor, full curve, poor fit]",
Cc1cc(C)c(C(=O)c2cccs2)c(C)c1,active: 28.2 µM,
C/C(=N\Nc1ccc(Cl)c(C(=O)O)c1)c1ccc(N2CCOCC2)cc1,"inconclusive [inhibitor, single point]",
COc1cc(CNC2CCCCC2OC)cc(OC)c1OC (configuration not stated),"inconclusive [inhibitor, single point]",
CCC(C)NC(=O)COC(=O)c1oc2ccccc2c1CSc1ccc(Cl)cc1 (configuration not stated),"inconclusive [inhibitor, partial curve]",
CCN1/C(=C/c2ccc3cc(C)ccc3[n+]2CC)Sc2ccc3sccc3c21,"inconclusive [inhibitor, partial curve]",
O=C(Cn1ncc(Cl)c(Cl)c1=O)N1CCc2ccccc21,,inactive: 22.5%
O=C(NCc1ccccc1)c1cc(C2CCCCN2S(=O)(=O)c2cccs2)on1 (configuration not stated),"inconclusive [inhibitor, single point]",
CC(C)(C)OC(=O)NCCc1nnc(SCc2cccc(Cl)c2)o1,"inconclusive [inhibitor, single point]",
